Some of the results follow. Interaction screen of human proteins with wild-type SARS-CoV-2 proteins by split-DHFR complementation in yeast, 1 µg/mL methotrexate. Value = fitness of the pair (three or more lineages) minus that of the viral protein without a human partner, on a scale set by negative (0) and fused positive (1) controls, mean of up to three cultures; higher = more likely to interact. Active = false discovery rate below 0.05 (one-sided t-test) in at least one culture. Nearly all pairs are not hits, and differences among them are mostly noise (correlation between cultures about 0.3); most hits were seen in one culture only. Human sequences are the Swiss-Prot entries looked up by gene name; the clone may be another isoform. NSP2 values were corrected by the authors for a growth advantage. Listed are human proteins with a hit and a random twelfth of the others.
B1: FRMD3, A2A2Y4 (protein)
chain: MFASCHCVPRGRRTMKMIHFRSSSVKSLSQEMRCTIRLLDDSEISCHIQRETKGQFLIDHICNYYSLLEKDYFGIRYVDPEKQRHWLEPNKSIFKQMKTHPPYTMCFRVKFYPHEPLKIKEELTRYLLYLQIKRDIFHGRLLCSFSDAAYLGACIVQAELGDYDPDEHPENYISEFEIFPKQSQKLERKIVEIHKNELRGQSPPVAEFNLLLKAHTLETYGVDPHPCKDSTGTTTFLGFTAAGFVVFQGNKRIHLIKWPDVCKLKFEGKTFYVIGTQKEKKAMLAFHTSTPAACKHLWKCGVENQAFYKYAKSSQIKTVSSSKIFFKGSRFRYSGKVAKEVVEASSKIQREPPEVHRANITQSRSSHSLNKQLIINMEPLQPLLPSPSEQEEELPLGEGVPLPKEENISAPLISSSPVKAAREYEDPPSEEEDKIKEEPLTISELVYNPSASLLPTPVDDDEIDMLFDCPSRLELEREDTDSFEDLEADENAFLIAEEEELKEARRALSWSYDILTGHIRVNPLVKSFSRLLVVGLGLLLFVFPLLLLLLESGIDLSFLCEIRQTPEFEQFHYEYYCPLKEWVAGKVHLILYMLGCS
B2: NUDT10, Q8NFP7 (protein)
chain: MKCKPNQTRTYDPEGFKKRAACLCFRSEREDEVLLVSSSRYPDRWIVPGGGMEPEEEPGGAAVREVYEEAGVKGKLGRLLGVFEQNQDPKHRTYVYVLTVTELLEDWEDSVSIGRKREWFKVEDAIKVLQCHKPVHAEYLEKLKLGGSPTNGNSMAPSSPDSDP
B3: TTYH1, Q9H313 (protein)
chain: MGAPPGYRPSAWVHLLHQLPRADFQLRPVPSVFAPQEQEYQQALLLVAALAGLGLGLSLIFIAVYLIRFCCCRPPEPPGSKIPSPGGGCVTWSCIVALLAGCTGIGIGFYGNSETSDGVSQLSSALLHANHTLSTIDHLVLETVERLGEAVRTELTTLEEVLEPRTELVAAARGARRQAEAAAQQLQGLAFWQGVPLSPLQVAENVSFVEEYRWLAYVLLLLLELLVCLFTLLGLAKQSKWLVIVMTVMSLLVLVLSWGSMGLEAATAVGLSDFCSNPDPYVLNLTQEETGLSSDILSYYLLCNRAVSNPFQQRLTLSQRALANIHSQLLGLEREAVPQFPSAQKPLLSLEETLNVTEGNFHQLVALLHCRSLHKDYGAALRGLCEDALEGLLFLLLFSLLSAGALATALCSLPRAWALFPPSDDYDDTDDDDPFNPQESKRFVQWQSSI
B4: C15orf40, Q8WUR7 (protein)
chain: MLRLRSGLRHLRATPNTRGSARLLCAEMPKKAGATTKGKSQSKEPERPLPPLGPVAVDPKGCVTIAIHAKPGSKQNAVTDLTAEAVNVAIAAPPSEGEANAELCRYLSKVLELRKSDVVLDKGGKSREKVVKLLASTTPEEILEKLKKEAKKT
B5: HBZ, P02008 (protein)
chain: MSLTKTERTIIVSMWAKISTQADTIGTETLERLFLSHPQTKTYFPHFDLHPGSAQLRAHGSKVVAAVGDAVKSIDDIGGALSKLSELHAYILRVDPVNFKLLSHCLLVTLAARFPADFTAEAHAAWDKFLSVVSSVLTEKYR

Key:
Assay in all cases: yeast fitness gain over the viral ORF with no human partner (scaled fitness); higher = more likely to interact
SARS-CoV-2 M = target: SARS-CoV-2 M
Method: (§1)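 Split mouse DHFR complementation in pooled diploid yeast: human ORFeome clones carry one fragment and viral ORFs the other; barcoded lineages compete in 1 µg/mL methotrexate and fitness is read by barcode sequencing in up to three cultures.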

SARS-CoV-2 NSP1 = target: SARS-CoV-2 NSP1
Method: as §1

SARS-CoV-2 NSP12 = target: SARS-CoV-2 NSP12
Method: as §1

SARS-CoV-2 NSP13 = target: SARS-CoV-2 NSP13
Method: as §1

SARS-CoV-2 NSP2 = target: SARS-CoV-2 NSP2
Method: as §1

SARS-CoV-2 NSP8 = target: SARS-CoV-2 NSP8
Method: as §1

SARS-CoV-2 ORF3B = target: SARS-CoV-2 ORF3B
Method: as §1

SARS-CoV-2 ORF6 = target: SARS-CoV-2 ORF6
Method: as §1

SARS-CoV-2 ORF8 = target: SARS-CoV-2 ORF8
Method: as §1

SARS-CoV-2 S = target: SARS-CoV-2 S
Method: as §1

SARS-CoV-2 NSP10 = target: SARS-CoV-2 NSP10
Method: as §1

SARS-CoV-2 NSP14 = target: SARS-CoV-2 NSP14
Method: as §1

SARS-CoV-2 NSP15 = target: SARS-CoV-2 NSP15
Method: as §1

SARS-CoV-2 NSP16 = target: SARS-CoV-2 NSP16
Method: as §1

SARS-CoV-2 NSP4 = target: SARS-CoV-2 NSP4
Method: as §1

SARS-CoV-2 NSP5 = target: SARS-CoV-2 NSP5
Method: as §1

SARS-CoV-2 NSP6 = target: SARS-CoV-2 NSP6
Method: as §1

SARS-CoV-2 NSP7 = target: SARS-CoV-2 NSP7
Method: as §1

SARS-CoV-2 ORF10 = target: SARS-CoV-2 ORF10
Method: as §1

SARS-CoV-2 ORF3A = target: SARS-CoV-2 ORF3A
Method: as §1

SARS-CoV-2 ORF7A = target: SARS-CoV-2 ORF7A
Method: as §1

SARS-CoV-2 ORF7B = target: SARS-CoV-2 ORF7B
Method: as §1

SARS-CoV-2 ORF9B = target: SARS-CoV-2 ORF9B
Method: as §1

[1] = target: SARS-CoV-2 ORF9Bwu (the 73-codon ORF)
Method: as §1

SARS-CoV-2 N = target: SARS-CoV-2 N
Method: as §1

Binder	yeast fitness gain (SARS-CoV-2 M)	yeast fitness gain (SARS-CoV-2 NSP1)	yeast fitness gain (SARS-CoV-2 NSP12)	yeast fitness gain (SARS-CoV-2 NSP13)	yeast fitness gain (SARS-CoV-2 NSP2)	yeast fitness gain (SARS-CoV-2 NSP8)	yeast fitness gain (SARS-CoV-2 ORF3B)	yeast fitness gain (SARS-CoV-2 ORF6)	yeast fitness gain (SARS-CoV-2 ORF8)	yeast fitness gain (SARS-CoV-2 S)	yeast fitness gain (SARS-CoV-2 NSP10)	yeast fitness gain (SARS-CoV-2 NSP14)	yeast fitness gain (SARS-CoV-2 NSP15)	yeast fitness gain (SARS-CoV-2 NSP16)	yeast fitness gain (SARS-CoV-2 NSP4)	yeast fitness gain (SARS-CoV-2 NSP5)	yeast fitness gain (SARS-CoV-2 NSP6)	yeast fitness gain (SARS-CoV-2 NSP7)	yeast fitness gain (SARS-CoV-2 ORF10)	yeast fitness gain (SARS-CoV-2 ORF3A)	yeast fitness gain (SARS-CoV-2 ORF7A)	yeast fitness gain (SARS-CoV-2 ORF7B)	yeast fitness gain (SARS-CoV-2 ORF9B)	yeast fitness gain [1]	yeast fitness gain (SARS-CoV-2 N)
B1	inactive: -0.0739	inactive: -0.12	inactive: 0.000278	inactive: -0.0907	inactive: -0.0201	inactive: -0.0815	inactive: -0.0354	inactive: 0.108	inactive: 0.0988	inactive: -0.0916															
B2	inactive: -0.0191	inactive: -0.0158	inactive: -0.0667	inactive: -0.0243	inactive: 0.129	inactive: -0.0569	inactive: -0.0378	inactive: 0.0397	inactive: -0.0501	inactive: 0.0337	inactive: 0.00385	inactive: 0.114	inactive: -0.141	inactive: 0.0379	inactive: -0.0606	inactive: 0.0286	inactive: 0.0319	inactive: 0.0238	inactive: 0.0211	inactive: 0.102	inactive: 0.123	inactive: 0.0142	inactive: -0.0237	inactive: 0.00827	
B3	inactive: -0.00692		inactive: 0.11	inactive: 0.0859	active: 0.568		inactive: 0.00549	inactive: 0.0604	inactive: 0.0182	inactive: -0.207	inactive: 0.0177	inactive: 0.143	inactive: 0.114	inactive: -0.0369	inactive: -0.057	inactive: 0.0132	inactive: 0.0645	inactive: 0.191	inactive: 0.0924	inactive: 0.0109	inactive: -0.167		inactive: 0.0405	inactive: -0.103	
B4	inactive: -0.0668	inactive: -0.101	inactive: -0.00459	inactive: -0.00539	inactive: 0.0131	inactive: -0.0187	inactive: 0.00953	inactive: 0.00387		inactive: -0.0701	inactive: -0.0627	inactive: 0.0274	inactive: 0.0125			inactive: -0.0272	inactive: -0.0346	inactive: 0.0249	inactive: -0.0231	inactive: -0.231	inactive: -0.0428	inactive: -0.0361	inactive: 0.0123		inactive: -0.0433
B5	inactive: -0.0187		inactive: 0.124	inactive: 0.124	inactive: 0.126		inactive: -0.106	inactive: 0.0481	inactive: 0.0237	inactive: 0.0825				inactive: 0.059		inactive: -0.211						inactive: -0.367	inactive: 0.0135		
